# Reference: the supplement of paper PMC4967469
# A lower IC50 marks a more sensitive line; where the fit passes the top or lowest dose, that dose stands as a limit. The AUC spans the tested range (256-fold, ending at the top dose) of the same fit; it is 1 without any effect and falls as sensitivity rises.
# Compound: CC[C@H](Nc1ncnc2[nH]cnc12)c1nc2cccc(F)c2c(=O)n1-c1ccccc1 [CAL-101]
# Assay: Viability of human cancer cell lines after 72 h of drug (GDSC screen)
# Protocol: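 Human cancer cell lines in 384-well plates, medium with 10% serum, drug for 72 h over a 256-fold dose range (nine 2-fold or five 4-fold steps up to the top dose). Adherent lines were fixed and stained with the nucleic acid dye Syto60, suspension lines read with resazurin; signal relative to control wells, capped at 0 and 100%. One two-parameter sigmoid per drug and line, fitted in a mixed model over all curves with the slope shared within a line.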
Cell Line,AUC,IC50 [µM]
"NCI-H28 (mesothelioma, adherent, top dose 20 µM)",0.978,> 20
"NCI-H64 (small cell lung carcinoma, suspension, top dose 20 µM)",0.897,13.5
"NCI-H69 (small cell lung carcinoma, suspension, top dose 20 µM)",0.938,> 20
"NCI-H82 (small cell lung carcinoma, suspension, top dose 20 µM)",0.975,> 20
"NCI-H187 (small cell lung carcinoma, suspension, top dose 20 µM)",0.948,> 20
"NCI-H196 (small cell lung carcinoma, adherent, top dose 20 µM)",0.879,> 20
"NCI-H209 (small cell lung carcinoma, suspension, top dose 20 µM)",0.976,> 20
"NCI-H211 (small cell lung carcinoma, adherent, top dose 20 µM)",0.959,> 20
"NCI-H226 (lung squamous cell carcinoma, adherent, top dose 20 µM)",0.967,> 20
"NCI-H292 (lung adenocarcinoma, adherent, top dose 20 µM)",0.911,> 20
"NCI-H322M (lung adenocarcinoma, suspension, top dose 20 µM)",0.966,> 20
"NCI-H345 (small cell lung carcinoma, suspension, top dose 20 µM)",0.989,> 20
"NCI-H358 (lung adenocarcinoma, adherent, top dose 20 µM)",0.944,> 20
"NCI-H441 (lung adenocarcinoma, adherent, top dose 20 µM)",0.979,> 20
"NCI-H446 (small cell lung carcinoma, semi-adherent, top dose 20 µM)",0.913,> 20
"NCI-H460 (large cell lung carcinoma, adherent, top dose 20 µM)",0.989,> 20
"NCI-H510A (small cell lung carcinoma, semi-adherent, top dose 20 µM)",0.985,> 20
"NCI-H520 (lung squamous cell carcinoma, adherent, top dose 20 µM)",0.793,9.51
"NCI-H522 (lung adenocarcinoma, adherent, top dose 20 µM)",0.969,> 20
"NCI-H524 (small cell lung carcinoma, suspension, top dose 20 µM)",0.987,> 20
"NCI-H526 (small cell lung carcinoma, suspension, top dose 20 µM)",0.962,> 20
"NCI-H596 (lung adenocarcinoma, adherent, top dose 20 µM)",0.968,> 20
"NCI-H630 (large intestine, adherent, top dose 20 µM)",0.967,> 20
"NCI-H647 (non-small cell lung carcinoma, adherent, top dose 20 µM)",0.869,19.9

Cell Line,AUC,IC50 [µM]
"NCI-H650 (lung adenocarcinoma, adherent, top dose 20 µM)",0.965,> 20
"NCI-H661 (large cell lung carcinoma, adherent, top dose 20 µM)",0.952,> 20
"NCI-H716 (large intestine, suspension, top dose 20 µM)",0.958,> 20
"NCI-H720 (lung carcinoid, suspension, top dose 20 µM)",0.963,> 20
"NCI-H727 (lung carcinoid, adherent, top dose 20 µM)",0.97,> 20
"NCI-H747 (large intestine, adherent, top dose 20 µM)",0.808,13.2
"NCI-H748 (small cell lung carcinoma, suspension, top dose 20 µM)",0.976,> 20
"NCI-H810 (large cell lung carcinoma, adherent, top dose 20 µM)",0.973,> 20
"NCI-H838 (lung adenocarcinoma, adherent, top dose 20 µM)",0.984,> 20
"NCI-H841 (small cell lung carcinoma, adherent, top dose 20 µM)",0.978,> 20
"NCI-H847 (small cell lung carcinoma, adherent, top dose 20 µM)",0.993,> 20
"NCI-H1048 (small cell lung carcinoma, adherent, top dose 20 µM)",0.952,> 20
"NCI-H1092 (small cell lung carcinoma, suspension, top dose 20 µM)",0.985,> 20
"NCI-H1155 (large cell lung carcinoma, suspension, top dose 20 µM)",0.991,> 20
"NCI-H1299 (large cell lung carcinoma, adherent, top dose 20 µM)",0.953,> 20
"NCI-H1304 (small cell lung carcinoma, suspension, top dose 20 µM)",0.908,> 20
"NCI-H1355 (lung adenocarcinoma, adherent, top dose 20 µM)",0.963,> 20
"NCI-H1395 (lung adenocarcinoma, adherent, top dose 20 µM)",0.939,> 20
"NCI-H1417 (small cell lung carcinoma, suspension, top dose 20 µM)",0.971,> 20
"NCI-H1435 (lung adenocarcinoma, semi-adherent, top dose 20 µM)",0.98,> 20
"NCI-H1436 (small cell lung carcinoma, suspension, top dose 20 µM)",0.968,> 20
"NCI-H1437 (lung adenocarcinoma, adherent, top dose 20 µM)",0.958,> 20
"NCI-H1563 (lung adenocarcinoma, adherent, top dose 20 µM)",0.894,> 20
"NCI-H1568 (lung adenocarcinoma, adherent, top dose 20 µM)",0.968,> 20

Cell Line,AUC,IC50 [µM]
"NCI-H1573 (lung adenocarcinoma, adherent, top dose 20 µM)",0.986,> 20
"NCI-H1581 (large cell lung carcinoma, semi-adherent, top dose 20 µM)",0.983,> 20
"NCI-H1623 (lung adenocarcinoma, adherent, top dose 20 µM)",0.978,> 20
"NCI-H1648 (lung adenocarcinoma, adherent, top dose 20 µM)",0.959,> 20
"NCI-H1651 (lung adenocarcinoma, adherent, top dose 20 µM)",0.981,> 20
"NCI-H1666 (lung adenocarcinoma, semi-adherent, top dose 20 µM)",0.954,> 20
"NCI-H1688 (small cell lung carcinoma, adherent, top dose 20 µM)",0.986,> 20
"NCI-H1693 (lung adenocarcinoma, adherent, top dose 20 µM)",0.975,> 20
"NCI-H1694 (small cell lung carcinoma, suspension, top dose 20 µM)",0.946,> 20
"NCI-H1703 (lung adenocarcinoma, adherent, top dose 20 µM)",0.897,> 20
"NCI-H1734 (lung adenocarcinoma, adherent, top dose 20 µM)",0.962,> 20
"NCI-H1755 (lung adenocarcinoma, adherent, top dose 20 µM)",0.536,1.59
"NCI-H1770 (non-small cell lung carcinoma, suspension, top dose 20 µM)",0.992,> 20
"NCI-H1781 (lung adenocarcinoma, adherent, top dose 20 µM)",0.978,> 20
"NCI-H1792 (lung adenocarcinoma, adherent, top dose 20 µM)",0.952,> 20
"NCI-H1793 (lung adenocarcinoma, adherent, top dose 20 µM)",0.975,> 20
"NCI-H1836 (small cell lung carcinoma, suspension, top dose 20 µM)",0.986,> 20
"NCI-H1838 (lung adenocarcinoma, adherent, top dose 20 µM)",0.975,> 20
"NCI-H1869 (lung squamous cell carcinoma, adherent, top dose 20 µM)",0.927,> 20
"NCI-H1876 (small cell lung carcinoma, adherent, top dose 20 µM)",0.959,> 20
"NCI-H1915 (large cell lung carcinoma, adherent, top dose 20 µM)",0.975,> 20
"NCI-H1975 (lung adenocarcinoma, adherent, top dose 20 µM)",0.958,> 20
"NCI-H1993 (lung adenocarcinoma, adherent, top dose 20 µM)",0.931,> 20
